{
  "source": "PubChem BioAssay AID686978",
  "about": "(National Center for Advancing Translational Sciences (NCATS), 2013)",
  "note": "Where “and” joins values, the source holds several entries; their conditions need not be identical. Identical values can stand only once. Hit rate of the full screen: of about 420,000 compounds, about 64,000 (15%) were called active. This list was built around the results that the source calls inconclusive (neither active nor inactive); the mix of calls is not that of the screen. The call rests on the fitted dose curve; in most records, active means well fitted inhibition curve with a large enough effect; inconclusive means small, poorly fitted or top-dose-only effect; inactive means flat fitted curve, though single readings scatter. No potency is given beside an inconclusive call; the fits are too rough. On the % scale 0 is the no-effect control and ±100 the full control effect; potency means the concentration at half of the fitted maximal effect; tags describe the fitted curve by direction and shape.",
  "data": [
    {"test": "qHTS for Inhibitors of human tyrosyl-DNA phosphodiesterase 1 (TDP1): qHTS in cells in absence of CPT; further: nearly all actives have a fitted effect of over 55% in size", "settings": "DT40 Tdp1-/- hTDP1 cells, no CPT, ATP luminescence, 48 h; activity change, negative = growth inhibition: at 46.2 µM (top of the series) unless noted", "procedure,_shortened": "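No-CPT arm: Tdp1-/-;hTDP1 DT40 cells (400/well) plus compounds, incubated ≥48 hr at 37 °C. Readout CellTiter-Glo luminescence.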", "values": [
      {"smiles": "Cc1ccccc1-c1noc(-c2cc3ccccc3oc2=O)n1", "Potency": "inconclusive [inhibitor, single point]"},
      {"smiles": "Cc1ccc(C(=O)CCC(=O)OCC(=O)NNC(=O)c2ccccc2Cl)cc1", "activity change, negative = growth inhibition": "inactive: 12.9%"},
      {"smiles": "Cc1ccc(-n2ncc(C(=O)Nc3ccc4c(c3)OCCO4)c2C2CCN(C(=O)OC(C)(C)C)CC2)cc1", "Potency": "active: 20.6 µM"},
      {"smiles": "N[C@@H](Cc1ccccc1)C(=O)N1CCC(C(=O)N[C@@H](Cc2c[nH]c3ccccc23)C(=O)O)CC1", "activity change, negative = growth inhibition": "inactive: -10.1%"},
      {"smiles": "CC(C)C1CC2=C(C(=O)OC(C)(C)O2)C(c2ccc(Cl)cc2)O1", "note": "(stereo not drawn)", "Potency": "inconclusive [inhibitor, partial curve]"},
      {"smiles": "O=C(CN(c1ccc(Cl)c(C(F)(F)F)c1)S(=O)(=O)c1ccccc1)N/N=C/c1cccc2c1OCCO2", "Potency": "inconclusive [inhibitor, single point]"},
      {"smiles": "CCOc1cccc(CN2CCN(c3cccc(C(F)(F)F)c3)CC2)c1O", "Potency": "inconclusive [inhibitor, single point]"},
      {"smiles": "O=C(NCc1ccncc1)C1Cc2c(-c3ccccc3Oc3ccccc3)ccnc2O1", "note": "(stereo not drawn)", "Potency": "active: 16.4 µM"},
      {"smiles": "CN(C)/C=C1\\C=Cc2ccccc21", "Potency": "active: 12.6 µM"},
      {"smiles": "CCCc1ccc(OC(C)C(=O)Nc2sc3c(c2C(=O)OC)CCCCC3)cc1", "note": "(stereo not drawn)", "Potency": "inconclusive [inhibitor, single point]"},
      {"smiles": "Cc1ccc(C(=O)Nc2ncc(Cc3ccc(SC(F)F)cc3)s2)cc1", "Potency": "active: 1.3 µM"},
      {"smiles": "COc1ccc(OC)c(-c2csc(NC(=O)Cn3[nH]c(=O)c4ccccc4c3=O)n2)c1", "Potency": "inconclusive [inhibitor, partial curve]"},
      {"smiles": "Cc1oc(C(C)(C)C)cc1C(=O)Nc1ccc2c(c1)OCO2", "Potency": "inconclusive [inhibitor, single point]"},
      {"smiles": "Cc1nc(N2CCCCC2)[nH]c(=O)c1CN(C)N=O", "Potency": "inconclusive [inhibitor, single point]"},
      {"smiles": "CCc1ccc(C(N)=S)cc1", "Potency": "inconclusive [inhibitor, single point]"},
      {"smiles": "O=C(Nc1nc2c(s1)CCCC2)c1ccc(S(=O)(=O)N2CCCc3ccccc32)cc1", "Potency": "inconclusive [inhibitor, single point]"},
      {"smiles": "CCc1nc2ccc(C(=O)NCCc3ccccn3)cn2c1N(CC)CCOC", "Potency": "inconclusive [inhibitor, single point]"},
      {"smiles": "COc1ccc(OCC(=O)N2CCN(c3nnc(-c4ccccc4)c4ccccc34)CC2)cc1", "Potency": "active: 18.4 µM"},
      {"smiles": "Cc1ccc(-c2nc(CS(=O)(=O)CC(=O)N3CCN(c4cccc(C)c4C)CC3)c(C)o2)cc1", "Potency": "inconclusive [inhibitor, single point]"},
      {"smiles": "CCOC(=O)c1cnc2ccc(OC)cc2c1NCCc1ccc(OC)c(OC)c1", "Potency": "active: 16.4 µM and active: 7.31 µM"},
      {"smiles": "Cc1cc(C)nc(Nc2ccccc2Cl)n1", "activity change, negative = growth inhibition": "inactive: -6.35%"},
      {"smiles": "O=C(Nc1cc(Cl)ccn1)C1(c2ccccc2)CC1(Cl)Cl", "note": "(stereo not drawn)", "Potency": "inconclusive [inhibitor, single point]"},
      {"smiles": "CNc1c(NC(=O)c2cc(OC)cc(OC)c2)c(=O)oc2ccccc12", "activity change, negative = growth inhibition": "inactive: -27.9%"},
      {"smiles": "CC(=O)N1CCOc2ccc(S(=O)(=O)N3CCC(C(=O)Nc4ccc(F)cc4)CC3)cc21", "activity change, negative = growth inhibition": "inactive: -20%"},
      {"smiles": "CSc1nc(Nc2cccc(C)c2)c(C#N)c(-c2ccccc2)n1", "Potency": "inconclusive [inhibitor, single point]"},
      {"smiles": "Cc1ccc(N2C(=O)CC(Sc3nc(C)cc(C)n3)C2=O)cc1", "note": "(stereo not drawn)", "Potency": "active: 8.2 µM"},
      {"smiles": "COc1cccc(OC)c1C(=O)Nc1ccc(C)cc1C(=O)c1ccccc1", "Potency": "inconclusive [inhibitor, single point]"},
      {"smiles": "CC1CC1C(=O)N(C)CC(=O)Nc1ccc(Cl)c(C(F)(F)F)c1", "note": "(stereo not drawn)", "Potency": "inconclusive [inhibitor, single point]"},
      {"smiles": "O=C(c1ccccc1Oc1nnnn1-c1ccccc1)N1CCOCC1", "activity change, negative = growth inhibition": "inactive: -5.82%"},
      {"smiles": "Cc1cccc(CNC(=O)c2cccc(NC(=O)N3CCSc4ncccc43)c2)c1", "Potency": "inconclusive [inhibitor, single point]"},
      {"smiles": "C[C@@H]1CN([C@@H](C)CO)C(=O)CCCn2nncc2CO[C@H]1CN(C)S(=O)(=O)c1ccc(Oc2ccccc2)nc1", "activity change, negative = growth inhibition": "inactive: -19.4%"},
      {"smiles": "CCOc1ccc(NC(=O)c2ccc3c(c2)CCN3S(C)(=O)=O)cc1", "activity change, negative = growth inhibition": "inactive: -13%"},
      {"smiles": "Cc1ccc(C(=O)CCNc2ccc(F)c(Cl)c2)o1", "Potency": "active: 16.4 µM"},
      {"smiles": "COc1cc(C2=NOC(C(=O)NCc3cccs3)C2)cc(OC)c1OC", "note": "(stereo not drawn)", "Potency": "active: 1.64 µM"},
      {"smiles": "CCC(=O)N(CC)c1nc(-c2cc(OC)ccc2OC)cs1", "Potency": "inconclusive [inhibitor, single point]"},
      {"smiles": "CC(C)(C)Nc1nc(-c2ccc3c(c2)CCN3C(=O)C2CC2)cs1", "Potency": "inconclusive [inhibitor, single point]"},
      {"smiles": "Cc1c(CN2CCN(CC(C)(C)C)C(CCO)C2)[nH]c2ccccc12", "note": "(stereo not drawn)", "Potency": "inconclusive [inhibitor, single point]"},
      {"smiles": "Cc1cc(S(=O)(=O)N(Cc2ccccc2F)C2CC2)ccc1-n1cnnn1", "Potency": "inconclusive [inhibitor, single point]"},
      {"smiles": "Cc1ccccc1-n1c(SCC(=O)NC2CCS(=O)(=O)C2)nc2ccccc2c1=O", "note": "(stereo not drawn)", "Potency": "inconclusive [inhibitor, single point]"},
      {"smiles": "Cc1ccc(C)c(CN2C(=O)CSc3ccc(C(=O)NCC(C)CN4CCC(C)CC4)cc32)c1", "note": "(stereo not drawn)", "Potency": "inconclusive [inhibitor, single point]"},
      {"smiles": "COC(=O)[C@]1(C)CCC[C@@]2(C)C3CC[C@@]4(C)C[C@]3(CCC21)CC(=O)N4Cc1ccc(OC)cc1", "note": "(stereo partly drawn)", "Potency": "active: 6.51 µM"},
      {"smiles": "Cc1ccc(S(=O)(=O)N(C)CC(=O)Nc2ccccc2)cc1", "activity change, negative = growth inhibition": "inactive: -20.8%"},
      {"smiles": "COc1ccc(NC(=O)/C(=C\\c2ccncc2)NC(=O)c2ccccc2)cc1", "activity change, negative = growth inhibition": "inactive: -5.81%"},
      {"smiles": "O=C1C=CC2(O[C@H](c3ccccc3)[C@@H](c3ccccc3)O2)[C@H](Sc2ccccc2O)C1", "Potency": "active: 0.58 µM"},
      {"smiles": "Cc1ccc(N2C(=O)C(NC(=O)c3ccccc3F)(C(F)(F)F)C3=C2CC(C)(C)CC3=O)cc1", "note": "(stereo not drawn)", "Potency": "inconclusive [inhibitor, single point]"},
      {"smiles": "CCc1ccc(C(=O)CSC2=C(C#N)C(c3ccco3)C(C(C)=O)=C(C)N2)cc1", "note": "(stereo not drawn)", "Potency": "inconclusive [inhibitor, single point]"},
      {"smiles": "CCCCNC(=O)c1nn(-c2ccc(C)cc2)c(=O)c2c1c1ccccc1n2C", "Potency": "active: 2.59 µM"},
      {"smiles": "CCC12CN3CC(C)(CN(C1)C3c1ccccc1C)C2=O", "note": "(stereo not drawn)", "activity change, negative = growth inhibition": "inactive: -1.34%"},
      {"smiles": "Cc1ccccc1-c1nc2cc(NC(=O)c3cccc(OCCC(C)C)c3)ccc2o1", "Potency": "active: 5.17 µM"},
      {"smiles": "COc1ccc(-c2oc(=O)c3cc(OC)c(OC)cc3c2C#C[C@]2(O)CC[C@H]3[C@@H]4CCc5cc(OC)ccc5[C@H]4CC[C@@]32C)cc1", "Potency": "active: 16.4 µM"},
      {"smiles": "Cc1nc2ccccc2c(=O)n1CCc1ccccc1", "Potency": "inconclusive [inhibitor, partial curve]"},
      {"smiles": "O=C(CSc1oc(-c2ccc(F)cc2)nc1S(=O)(=O)c1ccccc1)NCC1CCCO1", "note": "(stereo not drawn)", "Potency": "inconclusive [inhibitor, partial curve]"},
      {"smiles": "CCOc1ccc(-n2ccn3c(CC(C)CC(=O)O)nnc3c2=O)cc1", "note": "(stereo not drawn)", "activity change, negative = growth inhibition": "inactive: 8.12%"},
      {"smiles": "CCn1c(=O)c2cc(C(=O)Nc3cc(C)on3)sc2c2ccccc21", "Potency": "inconclusive [inhibitor, partial curve]"},
      {"smiles": "COc1ccc(OC)c(C(=O)c2oc3ccccc3c2NC(C)=O)c1", "Potency": "active: 16.4 µM"},
      {"smiles": "Cc1ccc(S(=O)(=O)/N=C(/Nc2cccc3ccccc23)c2ccc(F)cc2)cc1", "Potency": "inconclusive [inhibitor, single point]"},
      {"smiles": "CCOC(=O)Cc1cc(=O)n(-c2nc3ccccc3s2)[nH]1", "Potency": "active: 18.4 µM"},
      {"smiles": "O=C(OCC(=O)N1CCN(C(=O)c2ccco2)CC1)c1ccc(Cl)nc1", "activity change, negative = growth inhibition": "inactive: -0.679%"},
      {"smiles": "COc1cc(NC(=O)c2ccc(-c3nc(COc4ccccc4)c(C)o3)cc2)cc(OC)c1", "Potency": "active: 10.3 µM"},
      {"smiles": "C[C@H](Nc1ncnc2sc3c(c12)CCC3)C(=O)O", "activity change, negative = growth inhibition": "inactive: 0.505%"},
      {"smiles": "CC(C)[C@H](NS(=O)(=O)c1ccc(Cl)cc1)C(=O)OCC(=O)NCCN1C(=O)CSC1=O", "activity change, negative = growth inhibition": "inactive: -15.1%"},
      {"smiles": "Clc1ccc(-c2cc(COc3ccccc3)on2)cc1", "activity change, negative = growth inhibition": "inactive: -21.1%"},
      {"smiles": "CCc1ccc(C(=O)c2ccccc2C(=O)O)s1", "activity change, negative = growth inhibition": "inactive: 2.72%"},
      {"smiles": "COc1ccc(Cl)cc1S(=O)(=O)N(C)CC(=O)NCCCn1ccnc1", "activity change, negative = growth inhibition": "inactive: 6.89%"},
      {"smiles": "Cc1ccc(NC(=O)COC(=O)C2CC3C=CC2C3)cc1S(=O)(=O)N1CCCCC1", "note": "(stereo not drawn)", "Potency": "inconclusive [inhibitor, single point]"},
      {"smiles": "O=C(O)/C=C/C(=O)NNC(=O)c1cccc(Br)c1", "Potency": "inconclusive [inhibitor, partial curve]"},
      {"smiles": "O=C(CSc1nnc(CNC(=O)c2ccccc2F)n1-c1ccccc1)Nc1ccccc1F", "activity change, negative = growth inhibition": "inactive: -7.43%"},
      {"smiles": "CCc1c(C)nc(SCC(=O)N2C(C)CCCC2C)[nH]c1=O", "note": "(stereo not drawn)", "activity change, negative = growth inhibition": "inconclusive: -31% [inhibitor]"},
      {"smiles": "Cc1ccnc(NC(=O)c2ccoc2C)c1", "Potency": "inconclusive [inhibitor, single point]"},
      {"smiles": "COc1ccc(N2CCN(C(=O)CN3CCN(c4nc(-c5ccc(F)cc5)cs4)CC3)CC2)cc1", "Potency": "active: 7.31 µM"},
      {"smiles": "Cc1cccc(C)c1NC(=O)CNC(=O)C(NC(=O)c1ccc(C(C)(C)C)cc1)C(C)C", "note": "(stereo not drawn)", "Potency": "active: 20.6 µM"},
      {"smiles": "COc1ccccc1C(=O)OCC(=O)Nc1cc(S(=O)(=O)N2CCOCC2)ccc1N1CCCC1", "Potency": "inconclusive [inhibitor, single point]"},
      {"smiles": "Cc1cccc(OCc2n(CC(=O)OC3CC(C)CCC3C(C)C)c3ccccc3[n+]2C)c1", "note": "(stereo not drawn)", "Potency": "active: 5.8 µM"}
    ]}
  ]
}
